Test results taken from a collection of fitness landscapes (doi:10.1016/j.celrep.2020.107928).
Over roughly 81,000 sequences, “one-hybrid fitness for binding parS DNA” has its median near -0.17; the highest 2% begin near 0.51. The list shows a part of the results.

B1: Caulobacter ParB omega fusion; a variant is named by its letters at X, in order, B8GW30 (parent)
chain: MESVVVGEPGMSEGRRGLGRGLSALLGEVDAAPAQAPGEQLGGSREAPIEILQRNPDQPRRTFREEDLEDLSNSIREKGVLQPILVRPSPDTAGEYQIVAGERAWRAAQRAGLKTVPIMVRELDDLAVLEIGIIENVQRADLNVLEEALSYKVLMEKFERTQENIAQTIGKSXSHVANXMRLLXLPDEVQSYLVSGELTAXHARAIAAAADPVALAKQIIEGGLSVRETEALARKAPNLSAGKSKGGRPPRVKDTDTQALESDLSSVLGLDVSIDHRGSTGTLTITYATLEQLDDLCNRLTRGI

Variants of: B1
Assay: one-hybrid fitness for binding parS DNA (scaled: cognate 1, non-cognate 0); higher = stronger binding
Conditions: with parS DNA site
How it was run: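 Fitness here means the log change in variant-to-wild-type read ratio between plasmids sequenced before and after selection. That scale was set so cognate equals 1 and non-cognate equals 0. The selection was a bacterial one-hybrid screen of Caulobacter ParB libraries, four specificity codons randomised, in E. coli USO carrying a HIS3 reporter with the site 19 bp from the promoter, grown 48 hours at 37°C on M9-minus-histidine with 0.1 mM IPTG and 5 mM 3-AT.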

Variant | one-hybrid fitness for binding parS DNA
YGEG | ≤ 0.2
RPAN | ≤ 0.2
RLSY | 0.482
KHTD | ≤ 0.2
KGAC | ≤ 0.2
RQRG | 0.97
GGAN | ≤ 0.2
IMAG | ≤ 0.2
PNAY | ≤ 0.2
NARV | ≤ 0.2
PAMR | ≤ 0.2
TSPS | ≤ 0.2
IPVC | ≤ 0.2
IRKV | ≤ 0.2
CWQS | ≤ 0.2
NCHD | ≤ 0.2
WSVK | ≤ 0.2
PIGR | ≤ 0.2
FNRR | ≤ 0.2
NDYR | ≤ 0.2
QVSA | ≤ 0.2
AMKG | ≤ 0.2
LLVS | ≤ 0.2
KKTK | ≤ 0.2
WMEW | ≤ 0.2

Variant | one-hybrid fitness for binding parS DNA
PGAK | ≤ 0.2
EWEL | ≤ 0.2
LLVT | ≤ 0.2
HCPY | ≤ 0.2
SYVW | ≤ 0.2
SNHA | ≤ 0.2
NAPT | ≤ 0.2
RITF | 0.254
SINT | ≤ 0.2
MVDS | ≤ 0.2
TAKI | ≤ 0.2
SYRE | ≤ 0.2
FQKG | ≤ 0.2
TDNT | ≤ 0.2
SWKC | ≤ 0.2
CNRS | ≤ 0.2
NLLK | ≤ 0.2
WDTL | ≤ 0.2
MQEG | ≤ 0.2
HHQS | ≤ 0.2
ANPA | ≤ 0.2
CRPR | ≤ 0.2
KIWY | ≤ 0.2
VTRD | ≤ 0.2
QMNT | ≤ 0.2

Variant | one-hybrid fitness for binding parS DNA
LESS | ≤ 0.2
TRSM | ≤ 0.2
PWVM | ≤ 0.2
ARVV | ≤ 0.2
YAGR | ≤ 0.2
PHYT | ≤ 0.2
AFIG | ≤ 0.2
PTLY | ≤ 0.2
INHT | ≤ 0.2
DTPD | ≤ 0.2
APMT | ≤ 0.2
LTTF | ≤ 0.2
KANS | ≤ 0.2
WVSP | 0.215
NRYR | ≤ 0.2
DSLT | ≤ 0.2
VYVI | ≤ 0.2
CHVT | ≤ 0.2
LYHG | ≤ 0.2
YGHL | ≤ 0.2
RSFL | ≤ 0.2
LPYA | ≤ 0.2
EVKF | ≤ 0.2
QHDI | ≤ 0.2
KTHI | ≤ 0.2

Variant | one-hybrid fitness for binding parS DNA
HTCL | ≤ 0.2
QRYN | ≤ 0.2
NVPG | ≤ 0.2
TTWV | ≤ 0.2
YNYC | ≤ 0.2
KVFC | ≤ 0.2
QTWA | ≤ 0.2
HSHV | ≤ 0.2
RWIA | 0.295
RCMF | 0.265
ALLI | ≤ 0.2
QQND | ≤ 0.2
SARP | ≤ 0.2
TAYK | ≤ 0.2
HANV | ≤ 0.2
SAAF | ≤ 0.2
EDAC | ≤ 0.2
VVYI | ≤ 0.2
TVFW | ≤ 0.2
LHVG | ≤ 0.2
QPSY | ≤ 0.2
KLGM | ≤ 0.2
IVYG | ≤ 0.2
LGAC | ≤ 0.2
PIVC | ≤ 0.2

Variant | one-hybrid fitness for binding parS DNA
LILG | ≤ 0.2
LGKS | ≤ 0.2
HAGG | ≤ 0.2
GMQG | ≤ 0.2
LSNM | ≤ 0.2
DTTH | ≤ 0.2
QQLT | ≤ 0.2
YHTR | ≤ 0.2
SMMM | ≤ 0.2
ESSI | ≤ 0.2
VLPV | ≤ 0.2
CGVE | ≤ 0.2
PCMG | ≤ 0.2
TRPM | ≤ 0.2
GVQA | ≤ 0.2
YWQS | ≤ 0.2
ALAG | ≤ 0.2
DPLI | ≤ 0.2
RTNK | ≤ 0.2
QVKH | ≤ 0.2
RRPW | ≤ 0.2
RIFH | 0.213
VEAV | ≤ 0.2
WWYR | ≤ 0.2
VRMV | ≤ 0.2

Variant | one-hybrid fitness for binding parS DNA
RYWY | 0.393
MPTF | ≤ 0.2
RHGI | ≤ 0.2
YHQG | ≤ 0.2
SATR | ≤ 0.2
YSHK | ≤ 0.2
RWLW | ≤ 0.2
VRPT | ≤ 0.2
CSIG | ≤ 0.2
CKGT | ≤ 0.2
QIRS | ≤ 0.2
QNAM | ≤ 0.2
GGWL | ≤ 0.2
RMRF | 0.368
GIFT | ≤ 0.2
QTSV | ≤ 0.2
YEVL | ≤ 0.2
NVHG | ≤ 0.2
CTAT | ≤ 0.2
LAQI | ≤ 0.2
AQVT | ≤ 0.2
THKC | ≤ 0.2
RNDE | ≤ 0.2
PMYV | ≤ 0.2
SCAD | ≤ 0.2

Variant | one-hybrid fitness for binding parS DNA
TRLQ | ≤ 0.2
YPVC | ≤ 0.2
NKII | ≤ 0.2
YMKV | ≤ 0.2
PLEN | ≤ 0.2
QYLH | ≤ 0.2
PLRN | ≤ 0.2
WHGE | ≤ 0.2
LVGT | ≤ 0.2
NSYG | ≤ 0.2
RLSA | 0.587
FRWS | ≤ 0.2
KDNT | ≤ 0.2
SNCY | ≤ 0.2
WQTC | ≤ 0.2
NTAF | ≤ 0.2
RNHQ | ≤ 0.2
TISK | ≤ 0.2
RYEV | ≤ 0.2
MPPP | ≤ 0.2
PYGT | ≤ 0.2
QPTL | ≤ 0.2
MHWT | ≤ 0.2
GWWS | ≤ 0.2
EWRV | ≤ 0.2

Variant | one-hybrid fitness for binding parS DNA
NYNR | ≤ 0.2
PNAK | ≤ 0.2
VFVS | ≤ 0.2
PNTQ | ≤ 0.2
SRHV | ≤ 0.2
GDNL | ≤ 0.2
HLVG | ≤ 0.2
FMYR | ≤ 0.2
TKSH | ≤ 0.2
SDPV | ≤ 0.2
LTTL | ≤ 0.2
IALV | ≤ 0.2
YQWR | ≤ 0.2
HYMR | ≤ 0.2
MRDA | ≤ 0.2
LKNC | ≤ 0.2
IGFC | ≤ 0.2
QWMI | ≤ 0.2
NGTL | ≤ 0.2
DPPC | ≤ 0.2
